# Laboratory results reported in the supplement of paper PMC7125110.
# ± gives the standard error. Variants at the floor of the assay are shown more often than the library holds them.
# B1: glmS ribozyme (parent)
# chain: AUAAAAGCGCCAGAACUACAGAAAUGUAGUUGACGAGGAGGAGGUUUAUCGAAUUUUCGGCGGAUGCCUCCAAA
# Columns and labels:
# Details in all cases: with glucosamine-6-phosphate
# glucosamine-6-phosphate [1] = variants of: B1; assay: self-cleavage kobs at 40 uM GlcN6P; higher = faster cleavage; RNA array
# Outline: (§1)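 Over ~14 h at 37 °C, tiles were imaged as glucosamine-6-phosphate (40 μM to 10 mM) in HEPES/KCl/Mg(OAc)2 buffer flowed across sequenced MiSeq chips. The chips carried barcoded ribozyme variants transcribed in situ by E. coli RNA polymerase and tracked with a hybridised Cy3 probe. After normalisation to baseline and to non-cleaving reference variants, one- or two-exponential decay fits of per-tile medians gave kobs. kcat and KM followed from weighted Michaelis–Menten fits across concentrations.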
# glucosamine-6-phosphate [2] = variants of: B1; assay: self-cleavage kobs at 640 uM GlcN6P; higher = faster cleavage; RNA array
# Outline: as §1
# glucosamine-6-phosphate [3] = variants of: B1; assay: self-cleavage kobs at 160 uM GlcN6P; higher = faster cleavage; RNA array
# Outline: as §1
# glucosamine-6-phosphate [4] = variants of: B1; assay: self-cleavage kobs at 2500 uM GlcN6P; higher = faster cleavage; RNA array
# Outline: as §1
# glucosamine-6-phosphate [5] = variants of: B1; assay: self-cleavage kobs at 10000 uM GlcN6P; higher = faster cleavage; RNA array
# Outline: as §1
Variant,self-cleavage kobs at 40 uM GlcN6P (glucosamine-6-phosphate [1]),self-cleavage kobs at 640 uM GlcN6P (glucosamine-6-phosphate [2]),self-cleavage kobs at 160 uM GlcN6P (glucosamine-6-phosphate [3]),self-cleavage kobs at 2500 uM GlcN6P (glucosamine-6-phosphate [4]),self-cleavage kobs at 10000 uM GlcN6P (glucosamine-6-phosphate [5])
AUAAAAGCCCCAGAACUACAGAAAUGUAGUUGACGAGGAGGAGGUUUAUCGAAUUUACGGCGGAUGCCUCCAAA [G9C U57A],< 1e-05 s⁻¹,–,–,–,–
AUAAAAGCUCCUGAACUACAGAAAUGUAGUUGGCGAGGAUGAGGUUUAUCGAAUUUUCGGCGGAUGCCUCCAAA [G9U A12U A33G G40U],< 1e-05 s⁻¹,–,–,–,–
AUAAAAGCUCCAGAACUACAGAAAUGUAGUUGGCGAGGAGGAGGUUUAUCGAACUUUCGUCGGAUGCCUCCAAA [G9U A33G U54C G60U],< 1e-05 s⁻¹,< 1e-05 s⁻¹,< 1e-05 s⁻¹,< 1e-05 s⁻¹,–
AUAAAAGCUCCAGAACUACAGAAAUGUAGUUGACGAGGAGGAGGUUUAUCGAAUUUUCGGCGGUUGCCUCCAAA [G9U A64U],< 1e-05 s⁻¹,< 1e-05 s⁻¹,–,–,< 1e-05 s⁻¹
AUAAAAGCUCCAGAACUACAGAAAUGUAGUUUACGAGGAGUAGGUUUAUCGACUUUUCGGCGGAUGCCUCCAAA [G9U G32U G41U A53C],< 1e-05 s⁻¹,–,–,–,< 1e-05 s⁻¹
AUAAAAGCUCCAGAACUACAGAAAUGUAGUUGACGAGGAGCUGAUUUAUCGAAUUUUCGGCGGAUGCCUCCAAA [G9U G41C A42U G44A],< 1e-05 s⁻¹,< 1e-05 s⁻¹,< 1e-05 s⁻¹,< 1e-05 s⁻¹,–
AUAAAAGCGACAGAACUACAGAAAUGUAGUUGACGUGGCGGAGGUUUAUCGAAUUUGCGGCGGAUGCCUCCAAA [C10A A36U A39C U57G],< 1e-05 s⁻¹,–,–,–,–
AUAAAAGCGACAGAACUACAGAAAUGUAGUUGACGAGGAGGAGGUUUAUCGACUUUUCGGCGGAUGCCUCCAAA [C10A A53C],< 1e-05 s⁻¹,< 1e-05 s⁻¹,–,< 1e-05 s⁻¹,< 1e-05 s⁻¹
AUAAAAGCGAGAGAACUACAGAAAUGUAGUUGACGAGGAUGAGGUUGAUCGAAUUUUCGGCGAAUGCCUCCAAA [C10A C11G G40U U47G G63A],< 1e-05 s⁻¹,–,–,–,< 1e-05 s⁻¹
AUAAAAGCGACAGAAAUACAGAAAUGUAGUUGACGAGGAGGAGGUUUAUCGAAUUUUCGGCGGAUGCCUCCAAA [C10A C16A],< 1e-05 s⁻¹,–,–,–,–
AUAAAAGCGACAGAACUACAGAAAUGUAAUUGACGAGGAGGAGGUUUAUCGAAUUUUCGGCGGAUGGCUCCAAA [C10A G29A C67G],0.000103 ± 3.7e-05 s⁻¹,–,–,–,0.000102 ± 3e-05 s⁻¹
AUAAAAGCGACAGAACUACAGAAAUGUAGUUGACGAGAAGGAGGUUUAUCGAAUUUUCCGCGGAUGCCUCCAAA [C10A G38A G59C],< 1e-05 s⁻¹,< 1e-05 s⁻¹,–,–,< 1e-05 s⁻¹
AUAAAAGCGACAGAACUACAGAAAUGUAGUUGACGAGGAGGAGGUUUAUCGAAUUUUCGGCGCAUGCCUCCAAA [C10A G63C],< 1e-05 s⁻¹,< 1e-05 s⁻¹,–,< 1e-05 s⁻¹,< 1e-05 s⁻¹
AUAAAAGCGACAGAACUACAGAAAUGUAGUUGACGAGGAGGAGGUCUAUCGAAUUUUCGGCGGAUGCCUCCAAA [C10A U46C],< 1e-05 s⁻¹,< 1e-05 s⁻¹,< 1e-05 s⁻¹,–,< 1e-05 s⁻¹
AUAAAAGCGACAGAACUACAGAAAUGUAGUUGACGAGGAGGAGGUUUAUCGAAUUUUCGGCGGAAGCCUCCAAA [C10A U65A],< 1e-05 s⁻¹,< 1e-05 s⁻¹,< 1e-05 s⁻¹,–,< 1e-05 s⁻¹
